Results published in paper PMC4336329 (PLoS ONE, 2015).
Out of some 310,000 compounds screened, about 14,000 (4.5%) showed an effect of 50% or more. The effect is printed as a negative number. The list shows a part of the results.

Target: human ether-à-go-go-related gene (hERG) potassium channel (human, UniProt Q12809)
Assay: primary screen, population patch clamp on CHO cells stably expressing hERG
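Further: peak tail current of the secondary pulse compared with the same well before compound.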

Sequence of human ether-à-go-go-related gene (hERG) potassium channel (Q12809 whole entry, looked up): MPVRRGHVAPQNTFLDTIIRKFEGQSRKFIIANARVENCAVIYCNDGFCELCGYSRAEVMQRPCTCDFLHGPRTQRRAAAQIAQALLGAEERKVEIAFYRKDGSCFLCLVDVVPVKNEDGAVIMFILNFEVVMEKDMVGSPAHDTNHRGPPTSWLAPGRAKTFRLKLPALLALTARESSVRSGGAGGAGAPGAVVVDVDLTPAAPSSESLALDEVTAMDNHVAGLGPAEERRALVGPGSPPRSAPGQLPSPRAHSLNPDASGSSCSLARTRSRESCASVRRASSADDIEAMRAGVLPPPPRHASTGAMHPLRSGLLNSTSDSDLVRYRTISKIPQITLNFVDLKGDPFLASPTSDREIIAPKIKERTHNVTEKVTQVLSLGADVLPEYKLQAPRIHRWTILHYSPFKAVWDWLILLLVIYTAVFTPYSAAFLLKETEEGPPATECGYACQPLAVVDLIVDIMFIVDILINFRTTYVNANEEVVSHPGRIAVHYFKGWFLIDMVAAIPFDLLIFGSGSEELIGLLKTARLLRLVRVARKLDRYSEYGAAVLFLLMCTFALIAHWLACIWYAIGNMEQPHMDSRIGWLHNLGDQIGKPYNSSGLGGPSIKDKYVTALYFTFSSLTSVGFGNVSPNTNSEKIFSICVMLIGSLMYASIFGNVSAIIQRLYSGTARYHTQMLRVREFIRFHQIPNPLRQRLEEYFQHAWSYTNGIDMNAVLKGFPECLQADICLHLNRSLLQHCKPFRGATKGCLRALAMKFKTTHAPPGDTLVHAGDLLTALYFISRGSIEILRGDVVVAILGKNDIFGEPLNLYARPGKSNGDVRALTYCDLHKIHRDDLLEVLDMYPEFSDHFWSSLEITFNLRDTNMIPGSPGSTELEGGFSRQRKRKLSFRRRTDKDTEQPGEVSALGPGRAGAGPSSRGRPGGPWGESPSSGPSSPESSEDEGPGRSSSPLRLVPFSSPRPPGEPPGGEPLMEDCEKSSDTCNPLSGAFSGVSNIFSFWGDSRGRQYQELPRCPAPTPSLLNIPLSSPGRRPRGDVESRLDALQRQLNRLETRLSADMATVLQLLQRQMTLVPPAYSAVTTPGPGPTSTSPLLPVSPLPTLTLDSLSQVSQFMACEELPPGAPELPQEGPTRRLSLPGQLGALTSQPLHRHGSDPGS

| SMILES | hERG current change (%, negative = inhibition) at 10uM [%] |
| --- | --- |
| O=C(CN(Cc1ccco1)C(=O)c1cccc(F)c1)Nc1ccccc1C(F)(F)F | -7.89 |
| CC(=O)Nc1ccc(S(=O)(=O)Oc2ccc(C(=S)N3CCCCC3)cc2)cc1 | -16.6 |
| Cc1nnc(N(Cc2ccco2)C(=O)c2ccc(C#N)cc2)s1 | -18.5 |
| CCOC(=O)c1nnn(-c2nonc2NC(C)=O)c1C | 4.43 |
| CCOC(=O)c1c(NC(=O)C2c3ccccc3Oc3ccccc32)sc(C(N)=O)c1C | 4.61 |
| COC(=O)n1c(=S)oc2cc(Cl)ccc21 | 8.11 |
| O=C(Nc1nnc(SCC(=O)N2CCCC2)s1)C1CC(=O)N(c2ccccc2)C1 (stereo not drawn) | 27.2 |
| COc1cccc(NC(=S)NN2C(C)CCCC2C)c1 (stereo not drawn) | 2.98 |
| Cc1nn(CCC(=O)NCCc2ccccc2Cl)c(=O)c2nn(-c3ccccc3)c(C)c12 | 10.8 |
| COc1ccc(-c2nnc(SCC(=O)c3[nH]c(C)c(C(C)=O)c3C)o2)cc1 | 8.59 |
| Oc1cccc(C(=S)N2CCC(Cc3ccccc3)CC2)c1 | 12.6 |
| CN(CC(=O)Nc1cccc(F)c1)C(=O)c1cccc(S(=O)(=O)N2CCN(c3ccccc3)CC2)c1 | -23.4 |
| Cc1cccc(NS(=O)(=O)c2cccc(C(=O)N3CCCCCC3)c2)c1 | -3.09 |
| CC(C)(C)CC(=O)Nc1nnc(-c2cccs2)s1 | 7.4 |
| Cc1cnccc1NC(=O)c1cccs1 | 11 |
| COC(=O)c1ccccc1NC(=O)N1CCN(Cc2ccco2)CC1 | 6.81 |
| O=C(CCc1nnc2ccc(NCc3ccco3)nn12)Nc1ccccc1F | 5.76 |
| NC(=O)SCC(=O)Nc1ccc(Cl)c(Cl)c1 | 11.9 |
| Cc1cc(/C=N/Nc2ccc([N+](=O)[O-])cn2)c(C)n1-c1cccc(C(=O)O)c1 | 23.7 |
| O=C(COc1ccc([N+](=O)[O-])cc1)NNC(=S)NC(=O)c1ccc(Br)cc1 | -16.6 |
| O=C(Cn1nnc(-c2ccccc2)n1)N1CCN(c2ccc(F)cc2)CC1 | -5.24 |
| COc1ccc(NC(=O)c2n[nH]c(=O)c3ccccc23)cc1S(=O)(=O)N1CCCCC1 | 2.57 |
| Cc1ccc(Cl)cc1NC(=O)COC(=O)C1CC1 | -5.31 |
| Cc1cc(C)nc(SCc2nnc(SCC(=O)NCc3ccco3)n2-c2ccccc2)n1 | -14.5 |
